Article PMC4336329 (PLoS ONE, 2015)
About 2,200 (0.71%) of roughly 310,000 compounds showed an effect of 50% or more. Effects have a minus sign here. Some of the results follow.

What follows are molecules tested against human ether-à-go-go-related gene (hERG) potassium channel (human, UniProt Q12809) (assay: primary screen, population patch clamp on CHO cells stably expressing hERG).
human ether-à-go-go-related gene (hERG) potassium channel, sequence (Q12809 whole entry, looked up): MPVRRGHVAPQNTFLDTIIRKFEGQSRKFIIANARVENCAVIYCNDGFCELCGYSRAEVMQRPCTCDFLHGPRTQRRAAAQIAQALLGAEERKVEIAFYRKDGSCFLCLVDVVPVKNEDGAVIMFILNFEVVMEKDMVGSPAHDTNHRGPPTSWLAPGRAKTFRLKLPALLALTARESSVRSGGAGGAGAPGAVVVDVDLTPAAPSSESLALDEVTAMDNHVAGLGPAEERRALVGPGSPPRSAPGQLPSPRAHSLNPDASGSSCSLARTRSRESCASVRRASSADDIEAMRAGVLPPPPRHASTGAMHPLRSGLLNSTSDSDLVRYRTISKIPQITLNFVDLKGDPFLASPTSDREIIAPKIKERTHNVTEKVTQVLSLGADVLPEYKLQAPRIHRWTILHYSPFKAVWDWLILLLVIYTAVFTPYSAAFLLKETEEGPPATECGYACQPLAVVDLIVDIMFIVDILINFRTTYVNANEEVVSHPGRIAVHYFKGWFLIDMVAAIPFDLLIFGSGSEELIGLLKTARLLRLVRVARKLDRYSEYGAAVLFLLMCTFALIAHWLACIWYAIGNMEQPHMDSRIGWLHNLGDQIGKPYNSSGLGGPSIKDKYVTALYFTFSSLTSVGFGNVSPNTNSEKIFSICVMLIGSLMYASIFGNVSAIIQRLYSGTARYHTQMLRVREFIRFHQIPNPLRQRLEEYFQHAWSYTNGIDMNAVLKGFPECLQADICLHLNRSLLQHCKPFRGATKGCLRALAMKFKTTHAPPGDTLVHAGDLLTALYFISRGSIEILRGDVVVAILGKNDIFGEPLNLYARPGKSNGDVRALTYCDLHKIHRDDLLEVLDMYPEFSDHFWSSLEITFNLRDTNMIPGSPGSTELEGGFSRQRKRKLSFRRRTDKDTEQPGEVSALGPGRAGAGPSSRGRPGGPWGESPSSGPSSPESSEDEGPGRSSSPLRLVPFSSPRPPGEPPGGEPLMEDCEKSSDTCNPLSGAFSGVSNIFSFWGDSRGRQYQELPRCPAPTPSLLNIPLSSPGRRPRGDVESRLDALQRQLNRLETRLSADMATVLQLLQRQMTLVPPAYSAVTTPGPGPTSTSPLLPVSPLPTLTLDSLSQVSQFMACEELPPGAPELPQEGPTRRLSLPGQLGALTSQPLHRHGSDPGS

| SMILES | hERG current change (%, negative = inhibition) at 1uM [%] |
| --- | --- |
| CCCn1c(SCC(=O)Nc2c(C)cccc2CC)nnc1C(C)C | 8.79 |
| O=C(COc1ccc(Cl)cc1)N(Cc1ccccc1)c1ccccn1 | -1.62 |
| COc1ccc(NC(=O)CNC(=O)c2nn(-c3ccc(OC)c(Cl)c3)c(=O)c3ccccc23)c(OC)c1 | 11.5 |
| COc1ccc(C)cc1NC(=O)Cn1cnnn1 | 13.8 |
| COc1ccccc1N/C=C1/Sc2cc(Cl)ccc2NC1=O | 9.08 |
| CCOC(=O)C(C)n1cnc2c1c(=O)[nH]c(=O)n2C (stereo not drawn) | 8.76 |
| CCn1c(-c2sc(-c3ccccc3)nc2C)n[nH]c1=S | 13.1 |
| O=C(O)c1ccc(CSc2nc3ccccc3o2)cc1 | 5.85 |
| CCOC(=O)N1CCN(C(=O)c2c(-c3c(Cl)cccc3Cl)noc2C)CC1 | 3.28 |
| CN(C)C(=S)Nc1ccc(Cl)cc1 | 22 |
| Cc1c(Cl)cccc1-n1c(SCC(=O)NCc2ccccc2Cl)nnc1-c1ccncc1 | 4.95 |
| CC(C)Cn1nc(C(=O)Nc2cccc(C(=O)NC3CC3)c2)c2ccccc2c1=O | -18.4 |
| CCOc1ccc(NC(=O)COC(=O)CC2CCCCC2)cc1 | 6.04 |
| O=c1ccc2cc(S(=O)(=O)N3CCN(c4ccccc4)CC3)ccc2[nH]1 | 5.49 |
| CCOc1nc(C)ccc1-c1noc(C)n1 | 2.75 |
| O=C(COC(=O)c1cn(-c2ccccc2)nc1-c1ccccc1)c1ccc([N+](=O)[O-])cc1 | 7.57 |
| Cc1nn2c(N)c(-c3ccccc3)cnc2c1-c1ccccc1 | 15 |
| O=C(c1ccc(Sc2cccc(Cl)c2)c([N+](=O)[O-])c1)N1CCN(c2ccccn2)CC1 | 13.5 |
| CN(CC(=O)Nc1ccc(F)cc1)C(=O)CSc1nc2ncc(Cl)cc2[nH]1 | 8.21 |
| C=CCNC1=C(Cl)C(=O)N(Cc2ccccc2)C1=O | 13.9 |
| COc1cccc(NC(=O)CSc2nc3ccccc3n2C)c1 | -3.2 |
| CCc1cc(CNC(=O)C2CCC(=O)N(CCc3ccc(OC)cc3)C2)on1 (stereo not drawn) | 6.44 |
| COCCNS(=O)(=O)c1ccc(Cl)c(C(=O)NC2CCN(Cc3ccccc3)CC2)c1 | 9.74 |

| SMILES | hERG current change (%, negative = inhibition) at 1uM [%] |
| --- | --- |
| Cc1ccc(S(=O)(=O)/N=C(/Nc2ccc(O)c(C(=O)O)c2)c2ccccc2)cc1 | 7.5 |
| Cn1c(=O)c2c(c3ccccc31)OC(C)(C)CC2 | 6.23 |
| COc1ccccc1-n1cnnc1SCC(=O)Nc1cc(C)on1 | 7.75 |
| Cc1ccc(Sc2ccc(C=C3C(=O)N(C)C(=O)N(C)C3=O)o2)cc1 | 7.48 |
| CCOC(=O)C1CCN(C(=O)CC2(CC(=O)O)CCCC2)CC1 | 4.94 |
| Cc1ccc(NC(=O)c2cnn(C)c2)cc1[N+](=O)[O-] | 6.16 |
| O=C(Nc1cccc(NC(=O)c2ccccc2Cl)c1)c1cccs1 | 14.6 |
| COc1ccccc1NS(=O)(=O)c1ccc(/C=C/C(=O)N2CCN(C(C)=O)CC2)cc1 | 3.69 |
| COc1ccc(-c2[nH]ncc2CN(C)C(C)c2cccs2)c(F)c1 (stereo not drawn) | 6.62 |
| Cc1cc(SCC(=O)Nc2ccc(O)cc2)n2nc(C)c(-c3ccccc3)c2n1 | 7.76 |
| COc1ccc2oc(N)c(C=O)c(=O)c2c1 | 11.4 |
| CCCCC1=CC2=C(c3ccco3)C(=O)C(C)(OC(=O)c3ccc(OC)cc3)C(=O)C2=CN1C(CO)CO (stereo not drawn) | 9.2 |
| CCC(C)N(C(=O)Cn1c(=O)cnc2ccccc21)C1CCS(=O)(=O)C1 (stereo not drawn) | 0.0556 |
| CC1CCCN(CC(O)COCc2ccc3c(c2)OCO3)C1.Cl (stereo not drawn) | -0.142 |
| Cc1nn(-c2ccccc2)c(N)c1C1(O)C(=O)N(C(C)C)c2ccccc21 (stereo not drawn) | 9.1 |
| CCC(Oc1ccccc1)C(=O)N1CCC(C(N)=O)CC1 (stereo not drawn) | 16.3 |
| O=C1NCCCN1Cc1ccc(Cl)cc1 | 4.46 |
| NC(=O)c1ccc(NC(=O)CSc2nc3ccccc3c(=O)n2CCCN2CCOCC2)cc1 | 12.3 |
| Cn1c(=O)c(C(=O)c2ccc(S(C)(=O)=O)c(Cl)c2Cl)c(O)c2ccccc21 | 10.8 |
| CC(/C=C1\SC(=S)N(CCC(=O)Nc2nc(C)cs2)C1=O)=C\c1ccccc1 | 13.9 |
| S=c1[nH]nc(-c2ccc(Cl)cc2Cl)n1-c1ccccc1 | 14.8 |
| CCN1CCN(C(=O)c2ccc3c(c2)N(Cc2ccc(C)cc2)CCS3)CC1 | 4.13 |
